# The campaign covered roughly 390,000 compounds. About 17,000 (4.4%) were called active. Inconclusive means that the source gave no clear call. Such entries were picked first, then a sample of the others. Calls follow the shape of the dose curve; as a rule, active = well fitted inhibition curve with a large enough effect; inconclusive = small, poorly fitted or top-dose-only effect; inactive = no such curve, though single readings can be large or run the other way. Where the call is inconclusive, the potency comes from a doubtful curve fit.
# Biological target: Lysine-specific demethylase 4A (Homo sapiens) (UniProt O75164)
# Sequence of UniProt O75164 (O75164 whole entry, looked up, the tested form may be a part): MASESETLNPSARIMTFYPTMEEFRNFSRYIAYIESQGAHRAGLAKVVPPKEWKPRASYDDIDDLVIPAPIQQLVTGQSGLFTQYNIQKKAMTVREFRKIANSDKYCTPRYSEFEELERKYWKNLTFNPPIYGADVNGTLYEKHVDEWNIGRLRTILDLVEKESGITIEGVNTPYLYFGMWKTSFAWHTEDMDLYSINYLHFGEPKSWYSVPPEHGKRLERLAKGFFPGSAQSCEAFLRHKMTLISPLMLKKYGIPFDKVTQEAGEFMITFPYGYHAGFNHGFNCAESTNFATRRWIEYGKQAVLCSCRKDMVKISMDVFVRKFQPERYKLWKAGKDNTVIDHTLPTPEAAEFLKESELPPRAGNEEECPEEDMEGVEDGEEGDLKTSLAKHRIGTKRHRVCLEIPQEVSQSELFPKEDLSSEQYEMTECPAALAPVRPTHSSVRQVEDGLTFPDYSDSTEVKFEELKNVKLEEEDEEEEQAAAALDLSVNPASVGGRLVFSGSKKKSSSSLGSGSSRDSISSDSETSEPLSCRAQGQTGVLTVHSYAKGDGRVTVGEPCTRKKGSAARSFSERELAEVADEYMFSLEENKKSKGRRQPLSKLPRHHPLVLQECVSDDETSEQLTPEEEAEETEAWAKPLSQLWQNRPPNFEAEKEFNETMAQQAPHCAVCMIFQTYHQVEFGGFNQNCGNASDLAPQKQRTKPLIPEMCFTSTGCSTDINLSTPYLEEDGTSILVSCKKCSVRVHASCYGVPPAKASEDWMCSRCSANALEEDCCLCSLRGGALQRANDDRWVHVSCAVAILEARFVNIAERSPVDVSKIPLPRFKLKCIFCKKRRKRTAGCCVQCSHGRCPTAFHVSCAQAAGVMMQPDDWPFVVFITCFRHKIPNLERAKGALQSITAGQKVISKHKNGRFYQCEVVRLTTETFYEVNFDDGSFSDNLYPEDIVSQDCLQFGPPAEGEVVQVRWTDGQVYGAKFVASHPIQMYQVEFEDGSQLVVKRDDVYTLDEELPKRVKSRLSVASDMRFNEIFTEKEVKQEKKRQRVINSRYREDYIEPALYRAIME
# Experiment: qHTS Assay for Inhibitors of JMJD2A-Tudor Domain; also: nearly all actives have a fitted effect of over 50% in size
# Conditions: AlphaScreen JMJD2A-Tudor / H3K4me3 peptide binding; series mostly up to 114 µM
# Potency is read from the fitted curve at half-maximal effect; tags tell the direction and shape of the fitted curve.
row,SMILES,Potency
1,CN1CCc2nc(N)c(C#N)c(-c3ccccc3)c2C1,inactive
2,Cc1cc(/C=C2\C(=O)NC(=O)N(c3ccccc3F)C2=O)c(C)n1-c1cc(C(=O)O)cc(C(=O)O)c1,active: 11.2 µM
3,CCC(C)N1C(=O)/C(=C\c2cc3c4c(c2)CCCN4CCC3)C(=O)NC1=S (stereo unspecified),active: 14.1 µM
4,Cc1cccc(C2=NN(c3ccc(Br)cc3)[C@@H](C(=O)N3CCOC3=O)[C@@H]2c2ccc([N+](=O)[O-])cc2)c1,"inconclusive: 39.8 µM [inhibitor, partial curve]"
5,O=C1NC(=O)C(C2CCCCCC2)C(=O)N1,inactive
6,O=C(N/N=C/c1c(O)n(-c2cccc3ccccc23)c(=O)[nH]c1=O)c1ccncc1,active: 50.1 µM
7,N#CC(C#N)=NNc1ccc([N+](=O)[O-])cc1,"inconclusive: 35.5 µM [inhibitor, partial curve]"
8,Cc1ccc(-n2nc(C)c3c2NC(=O)CSC3c2ccc3c(c2)OCO3)cc1 (stereo unspecified),"inconclusive: 79.4 µM [inhibitor, partial curve]"
9,Nc1ccc([As](=O)(O)O)cc1,inactive
10,N/C(=N\N=C/c1ccc(-c2ccc(O)c(C(=O)O)c2)o1)N[N+](=O)[O-],active: 11.2 µM
11,CCCOP(=O)(OCCC)C(Nc1ccc(C(C)C)cc1)c1ccc([N+](=O)[O-])cc1 (stereo unspecified),"inconclusive: 50.1 µM [inhibitor, partial curve]"
12,O=c1c2ccccc2[nH]c(=S)n1-c1cccnc1,inactive
13,CC1CCCN(CC(=O)N2CCCc3ccccc32)C1 (stereo unspecified),inactive
14,CCOc1ccc(N2C(=O)/C(=C\c3cccs3)C(=O)NC2=S)cc1,active: 35.5 µM
15,C[N+]1(CC(=O)OCCCc2ccccc2)CCCCC1,"inconclusive: 39.8 µM [inhibitor, single point]"
16,C=CCN1C(=O)/C(=C/c2cccs2)C(=O)NC1=S,active: 79.4 µM
17,Cc1ccc(S(=O)(=O)Cc2ccc(C(=O)N3CCC4(CC3)OCCO4)o2)cc1,"inconclusive: 89.1 µM [inhibitor, partial curve]"
18,CC(C)(C)c1ccc(OC(=O)N2CCCCC2)cc1,"inconclusive: 25.1 µM [inhibitor, single point]"
19,CCc1ccc(N2NC(=O)/C(=C/C=C/c3ccco3)C2=O)cc1,"inconclusive: 20 µM [inhibitor, partial curve]"
20,O=[N+]([O-])c1ccc(CN2CCN(c3ccc(Cl)cc3)CC2)o1,active: 17.8 µM
21,C[n+]1cc(P(=S)(c2ccccc2)c2ccccc2)n2ccccc21,inactive
22,O=C(Nc1nc2nc(-c3ccccc3)cc(=O)n2[nH]1)c1ccccc1,"inconclusive: 89.1 µM [inhibitor, single point]"
23,Fc1ccc(CNCCc2c[nH]c3ccccc23)cc1,"inconclusive: 89.1 µM [inhibitor, partial curve]"

row,SMILES,Potency
1,CCOC(=O)c1sc(/N=C/c2c(O)n(-c3ccccc3)c(=O)[nH]c2=O)c(C#N)c1C,"inconclusive: 89.1 µM [inhibitor, single point]"
2,CN1C(=O)N(C)C(=O)C2(Cc3cc(NC(=O)c4ccccc4Cl)ccc3N3CCCC32)C1=O (stereo unspecified),"inconclusive: 3.98 µM [inhibitor, single point]"
3,COc1ccc(-c2oc(=O)n(C)c2-c2ccc(OC)cc2)cc1,"inconclusive: 50.1 µM [inhibitor, partial curve]"
4,CCCOc1ccc(C(=O)NC(=S)N2C[C@H]3C[C@H](C2)c2cccc(=O)n2C3)cc1,"inconclusive: 56.2 µM [inhibitor, partial curve, poor fit]"
5,O=c1oc2ccccc2c(O)c1C(c1ccc([N+](=O)[O-])cc1)c1c(O)c2ccccc2oc1=O,"inconclusive: 79.4 µM [inhibitor, partial curve]"
6,COc1ccccc1CN1CCCCC1c1cccnc1 (stereo unspecified),"inconclusive: 56.2 µM [inhibitor, partial curve]"
7,Cc1cccc(N2C(=O)NC(=O)/C(=C\c3cc(C)n(-c4sc5c(c4C#N)CCCC5)c3C)C2=O)c1C,"inconclusive: 44.7 µM [inhibitor, partial curve]"
8,COc1ccc(S(=O)(=O)Nc2ccccc2OC)cc1N=Nc1c(O)[nH]c(=S)[nH]c1=O,"inconclusive: 28.2 µM [inhibitor, full curve]"
9,O=C(c1ccc(N2CCCCCC2)c([N+](=O)[O-])c1)N1CCC2(CC1)OCCO2,"inconclusive: 31.6 µM [inhibitor, partial curve]"
10,COc1cc(C)c(CN2CCN(c3ccccc3)CC2)cc1C,active: 3.16 µM
11,CCC(=O)OC(Cc1ccccc1)(c1ccccc1)C(C)CN(C)C (stereo unspecified),inactive
12,CCn1c(N)c(C(=O)NC)sc1=S,active: 56.2 µM
13,CCN1CCN(CC(c2ccccc2)c2ccccc2)CC1,active: 0.794 µM
14,c1ccc2c(CCNCc3ccc4c(c3)OCO4)c[nH]c2c1,"inconclusive: 31.6 µM [inhibitor, full curve, poor fit]"
15,O=[N+]([O-])c1cccc(CN2CCN(Cc3ccc(Br)cc3)CC2)c1,active: 20 µM
16,OCCNCCc1c[nH]c2ccc(OCc3ccccc3)cc12,active: 39.8 µM
17,CCCC1(CCO)C(=O)NC(=S)NC1=O,active: 20 µM
18,O=C(C(=O)N1CCOCC1)c1cn(Cc2c(F)cccc2Cl)c2ccccc12,inactive
19,CN1C(=O)C(c2ccc([N+](=O)[O-])cc2[N+](=O)[O-])C(=O)N(C)C1=O,"inconclusive: 89.1 µM [inhibitor, single point]"
20,CC1=CC(C)CC(C)OC(=O)CC(c2ccc(O)cc2)NC(=O)C(Cc2c(Br)[nH]c3ccccc23)N(C)C(=O)C(C)NC(=O)C(C)C1 (stereo unspecified),inactive
21,O=S1(=O)N(CCN2CC=C(c3c[nH]c4cc(F)ccc34)CC2)c2cccc3c2N1CCC3,"inconclusive: 28.2 µM [inhibitor, full curve]"
22,O=C(Nc1nnc(-c2ccco2)o1)c1cccc2ccccc12,"inconclusive: 35.5 µM [inhibitor, single point]"
23,CC(=O)n1cc(C=C2C(=O)NC(=O)NC2=O)c2ccccc21,"inconclusive: 22.4 µM [inhibitor, full curve, poor fit]"
